Measured values reported in the supplement of paper PMC3334620.
Over roughly 33,000 sequences, “E-score (-0.5 to 0.5)” has its median near -0.012; the highest 2% begin near 0.27. The list shows a part of the results.

Molecular target: T1, Vhr1 (UniProt P40522)
T1 sequence: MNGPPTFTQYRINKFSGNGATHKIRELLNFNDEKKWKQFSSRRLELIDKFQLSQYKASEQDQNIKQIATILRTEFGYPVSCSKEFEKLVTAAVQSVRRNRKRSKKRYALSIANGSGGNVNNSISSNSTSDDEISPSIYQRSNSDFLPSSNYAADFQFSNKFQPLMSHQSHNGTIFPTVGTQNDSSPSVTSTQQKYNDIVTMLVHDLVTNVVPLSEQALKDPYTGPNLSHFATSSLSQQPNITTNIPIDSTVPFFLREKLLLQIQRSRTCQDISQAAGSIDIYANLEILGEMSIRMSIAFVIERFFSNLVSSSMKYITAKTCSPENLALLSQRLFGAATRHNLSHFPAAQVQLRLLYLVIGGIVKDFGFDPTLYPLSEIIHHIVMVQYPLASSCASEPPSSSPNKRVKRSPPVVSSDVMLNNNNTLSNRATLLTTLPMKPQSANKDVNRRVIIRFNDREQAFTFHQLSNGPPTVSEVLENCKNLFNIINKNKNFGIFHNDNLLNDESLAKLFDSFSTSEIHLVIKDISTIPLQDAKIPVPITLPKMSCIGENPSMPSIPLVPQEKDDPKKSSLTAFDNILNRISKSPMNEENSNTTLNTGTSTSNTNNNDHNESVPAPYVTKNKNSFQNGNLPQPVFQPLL
Test: PBM E-score (8-mer binding enrichment) (E-score (-0.5 to 0.5)); higher = stronger / more preferred TF binding; most listed sequences are background and not binding sites
Details: protein concentration: 200 nM; construct: GST-full length
Outline: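 Each ungapped eight-base word and its reverse complement, pooled, received an E-score from the Universal PBM Analysis Suite. Underlying scans, normalised with masliner, recorded fluorescent anti-GST bound to GST-tagged yeast transcription factors. These were applied at about 100-200 nM to universal all-10-mer Agilent arrays double-stranded by primer extension.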

Sequence | PBM E-score
CATGTTAC | 0.231
GTAGCAAA | -0.0523
ATAGCTGA | -0.0235
GATTTCCA | 0.0482
AAACCAGG | 0.0647
ACCCTCAC | -0.0857
GGAAGATA | 0.0181
CGCACCTC | 0.0244
AAGCTAGA | -0.096
GTTAATGA | 0.0145
CGACAGCC | 0.00503
AAGACATC | -0.0967
CACGCAGG | -0.0242
TAGCGTCA | -0.148
CCATAGCC | -0.108
CAGCCCCG | -0.0611
CCGGCCGA | 0.031
CACTCTTC | -0.0913
ATCGGCAT | 0.0266
GTCGTGTA | 0.174
AACCCACG | 0.0933
ATATAGAT | 0.12
AAAATGTG | 0.027
CCGTGATA | -0.164
GAGTGGAC | -0.0407

Sequence | PBM E-score
GCGATGAC | 0.233
AATCCACA | 0.0279
CCGTCAAC | -0.188
AGGTTGGG | 0.0359
CACCCCAG | -0.0397
TCACCCCA | 0.305
AATATCCA | 0.0202
AGTATGAC | 0.311
AAGCTCGG | 0.0437
ATTGTTCC | 0.127
AGGCGGAG | 0.206
AGTCGGCA | 0.282
GCGCAGCC | -0.143
AGAGATTG | -0.0283
AGAGCTGA | 0.0627
GCGGCAAA | -0.152
AATCCCCC | -0.185
ATGTAATC | 0.177
AATCGCTG | -0.123
CGAATGTA | -0.0178
CAGCAAGA | -0.0328
CGCCATTA | 0.0871
CTGCAAAC | -0.136
AATGAAGC | -0.155
CCCTGTCC | -0.16

Sequence | PBM E-score
GACTTGAC | -0.116
CCGTCTTA | -0.205
ACCGCTTA | -0.0904
CTCCTAAA | -0.232
CAATATTA | 0.0205
TAGGAAAA | -0.22
CGAGCCGC | 0.139
ATCCTAAC | 0.0501
AGGTAAGG | -0.0705
AGACTACT | 0.216
ACAAATGA | -0.171
GGACGCCA | -0.097
GCCGACCA | -0.115
CATAGGGG | -0.0569
CGCGTGAA | 0.0136
ATGGTCAG | 0.102
GAACTGGA | 0.00065
TATGAAAA | -0.123
AGGATTAA | 0.0103
GATAGGCA | -0.194
CAAACTCC | 0.0591
TGAGCTAA | -0.158
AGAGACAA | -0.253
AACATGGT | -0.0365
GGAGCTAA | -0.183

Sequence | PBM E-score
ATGCTTAG | 0.0684
AAGAAGCT | -0.191
TACCGAAA | -0.168
TACACAGA | 0.0473
CCTTACAC | 0.0106
AACAAGCG | 0.0196
GACCATTA | -0.00214
ACTTACAC | 0.1
AGCGCCTG | -0.154
CAATGTCG | 0.0376
AATGAGTC | 0.426
CTTAGCGA | 0.0219
GCGTTGCC | -0.172
GTTATCCA | -0.0557
CCATAGAC | 0.0316
AATTCATA | 0.055
CCAGTTAA | -0.0583
CCAAACAG | 0.0173
GAGTAGAC | 0.0677
CAAAGCTC | -0.118
GAGCGCTA | 0.0038
GCCAGGAA | 0.0174
AGTGACAT | 0.113
GACCGTCC | -0.0842
AACACGTA | -0.0122

Sequence | PBM E-score
AACGTAGG | -0.233
ACGCACTG | -0.00333
AAAAGACA | -0.0564
AATCATCA | 0.374
CATGGAAA | 0.0272
ACAGCAGG | 0.168
GAGTGGGA | 0.0583
CCCATTAA | -0.0295
CCACGCGG | -0.0573
GCTATTTA | 0.0569
GAAGCATA | -0.124
ATGACGGA | 0.0646
CTGTTTAC | -0.172
ACTCTGCC | 0.0422
ACCGAGAA | -0.0145
CTCCTAAC | -0.0328
CGCAGCCA | 0.0674
TCACAAGA | 0.0715
ATGCGTAC | 0.0948
GTTTGCGA | -0.0627
CGCCGAAC | 0.0162
CTGATGAA | -0.171
AACCTGTC | -0.131
ATTCGACC | -0.168
CGCGTTCC | 0.0149

Sequence | PBM E-score
TGTAATAA | -0.0497
GAGTGAGA | -0.0209
ATAGCCAT | 0.153
AGTTGGGA | -0.102
CTACCAGA | 0.00647
ACGACACA | 0.219
ATAGCTCG | -0.00817
CAAGTAAG | -0.123
CAGCGAGG | -0.0601
AAACGATT | 0.104
GCATCTGA | 0.016
CCATTTGC | -0.0124
ACGAACCA | 0.273
AGATTCCT | 0.0667
GCCTATAC | -0.128
CAAGGTGA | 0.156
ATAACCGA | -0.0216
GCAGTGCC | -0.245
ATATGTCA | 0.0767
GGTCACGA | 0.09
CGGCAGAA | -0.126
TGGAACCA | 0.21
TGACGCCA | -0.0528
GAGCCGAC | -0.00166
CGCCTATA | -0.135

Sequence | PBM E-score
GCCTTAGA | -0.114
CCTACACC | -0.0776
CATATGGA | 0.105
AAATTAAT | -0.159
GACGGAGA | -0.0493
ACTAACCC | 0.16
AGTCATCG | 0.44
TCGTGTAA | -0.00574
ATTGCCCA | -0.113
CTGAGAAG | -0.193
GCGCCAGA | -0.139
TCCATTAA | -0.0449
AAAGTGCG | -0.158
GTATCCAC | 0.0538
TTAGCAAA | -0.0673
GACATAGA | 0.029
CTCAAAAG | -0.0415
CGTATGCC | -0.195
TACCGCCA | 0.0567
TGTACAAA | -0.0832
AGCTCTGC | -0.128
AGCTTGCG | -0.121
AATGTAGA | -0.123
AGAGTTAG | -0.0264
CTGTATAA | 0.0752

Sequence | PBM E-score
ATTCATAG | 0.0981
GCTTGTAC | 0.155
CAATTGGC | -0.0522
ACCGAACA | 0.056
CCGGAGCA | -0.14
GACTCTTA | 0.266
CCCTGAAC | 0.0992
CTCTGAGA | -0.00698
AGGCGTCC | -0.128
GGCGGAAC | -0.0937
CATCCAGC | 0.11
CCATGGCC | -0.0122
AACAAAAG | -0.284
GAGCTAGA | -0.219
CGTGTATA | 0.0286
ATAGCGCA | -0.186
ATGTCTTG | 0.0571
AAGCGAAG | -0.0409
AGTGAATG | 0.0791
ACAATCAT | 0.231
GCGCAAGA | -0.063
TACGATCA | 0.0675
CTGCCTTC | -0.238
GCTCACCC | 0.265
CGGGTCAG | 0.204

Sequence | PBM E-score
CGCGAAAG | -0.022
CTTACTAA | -0.123
GATGAGAC | 0.118
CCTATTGA | -0.165
AGACCTAT | 0.0289
AAGCCCAT | 0.0871
AAGGCCAA | -0.346
AACATCAT | 0.148
ACCGTCCG | -0.0548
AATTTTCA | -0.196
GACACTCA | 0.0958
CCACTCTA | 0.0236
AAATATTT | -0.35
CTGCTGGC | -0.145
TAATGCGA | 0.0305
CTTTCACC | -0.204
ATATACCG | 0.247
CGCAGCTA | 0.0366
AGTACACC | 0.103
